Laboratory results taken from article doi:10.1101/2025.07.07.663466 (bioRxiv, 2025).

Biological target: the molecule itself
Assay: native gel or EMSA

B1: recombinant E. coli GroEL (natural protein)
chain: not shown
stoichiometry N: 14
